Assay results from patent US4322439A, “ω-[2-(N-Lower alkyl-benzamido)-phenyl]-alkanoic acids, their use, and medicaments containing them” (BYK Gulden Lomberg Chemische Fabrik GmbH, priority 1978, dated 1982).
pIC50: −log10 of the molar value. The name of at least one read-out is uncertain.

tested on: isolatedly perfused rat liver; test: Inhibition of glucose formation (from lactate and pyruvate) on the isolatedly perfused rat liver; set-up: species or system Sprague-Dawley rats; details: concentration in the perfusate, read-out: D: ID50 (inhibition of the glucose formation from lactate and pyruvate by 50%)
Description: The values in column D show the concentrations (ID50 mmol/l) of the substances in the perfusate, which bring about on the isolatedly perfused rat liver an inhibition of the glucose formation from lactat and pyruvat by 50%.
2. Inhibition of Glucose Formation on the Isolatedly Perfused Rat Liver
Young male Sprague-Dawley rats (160-200 g) are used. The animals are kept as described under 1.
Food is withdrawn from the animals 20-22 hours before the operation. Water uptake occurs ad libitum. Operation and perfusion of the liver are effected according to the technique of R. Scholz et al. [Eur. J. Biochem. 38 (1973) 64-72]. As perfusion liquids, Krebs-Henseleit biocarbonate buffer (pH 7.4) is used which is saturated with an oxygen/carbon dioxide mixture (95/5) and contains 1.6 mmoles/liter L-lactates and 0.2 mmole/liter pyruvate. The perfusion liquid is pumped into the liver via a cannula introduced into the portal vein. The perfusion liquid emerging is collected via a cannula introduced into the vena cava and then taken past an oxygen electrode. The liver is perfused for about 2 hours. The test compounds are infused from the 32nd to 80th minute of the perfusion, with increasing concentrations (0.01, 0.03, 0.10 mmol/l).
Samples of the emerged perfusion liquid are collected at one-minute intervals and analysed for glucose, lactate and pyruvate according to enzymatic standard methods. The oxygen content is continuously determined by means of a platinum electrode. The check constants (ID50) stated in Table I refer to the state which exists before and after addition of the compounds; the changes caused alone through lactate and pyruvate were set at 100%.

| SMILES | pIC50 |
| --- | --- |
| CN(C(=O)c1ccc(Cl)cc1)c1ccccc1CCC(=O)O [Serial No. 4, 3-[2-(N-methyl-4-chlorobenzamido)-phenyl]-propionic acid] | 3.85 |
| CN(C(=O)c1ccc(Cl)c(Cl)c1)c1ccccc1CCC(=O)O [Serial No. 5, 3-[2-(N-methyl-3,4-dichlorobenzamido)-phenyl]-propionic acid] | 4.00 |
| CN(C(=O)c1ccccc1)c1ccccc1CCC(=O)O [Serial No. 6, 3-[2-(N-methylbenzamido)-phenyl]-propionic acid] | 3.70 |
| CN(C(=O)c1ccc(Cl)c(Cl)c1)c1ccc(Cl)cc1CCC(=O)O [Serial No. 7, 3-[5-chloro-2-(N-methyl-3,4-dichlorobenzamido)-phenyl]-propionic acid] | 4.47 |
| CN(C(=O)c1cccc(C(F)(F)F)c1)c1ccc(Cl)cc1CCC(=O)O [Serial No. 8, 3-[5-chloro-2-(N-methyl-3-trifluoromethylbenzamido)-phenyl]-propionic acid] | 3.98 |
| CN(C(=O)c1ccc(Cl)cc1)c1ccccc1CCCC(=O)O [Serial No. 9, 4-[2-(N-methyl-4-chlorobenzamido)-phenyl]-butyric acid] | 3.90 |
| CN(C(=O)c1ccc(Cl)c(Cl)c1)c1ccccc1CCCC(=O)O [Serial No. 10, 4-[2-(N-methyl-3,4-dichlorobenzamido)-phenyl]-butyric acid] | 4.46 |
| CN(C(=O)c1ccc(Cl)cc1Cl)c1ccccc1CCCC(=O)O [Serial No. 11, 4-[2-(N-methyl-2,4-dichlorobenzamido)-phenyl]-butyric acid] | 4.22 |
| CN(C(=O)c1cccc(C(F)(F)F)c1)c1ccccc1CCCC(=O)O [Serial No. 12, 4-[2-(N-methyl-3-trifluoromethylbenzamido)-phenyl]-butyric acid] | 4.82 |
| COc1cccc(N(C)C(=O)c2ccc(Cl)cc2)c1CCCC(=O)O [Serial No. 13, 4-[6-methoxy-2-(N-methyl-4-chlorobenzamido)-phenyl]-butyric acid] | 4.36 |
| COc1ccc(N(C)C(=O)c2ccc(Cl)c(Cl)c2)c(CCCC(=O)O)c1 [Serial No. 14, 4-[5-methoxy-2-(N-methyl-3,4-dichloro-benzamido)-phenyl]-butyric acid] | 4.15 |
| CN(C(=O)c1ccc(Cl)c(Cl)c1)c1ccccc1CCCCC(=O)O [Serial No. 15, 5-[2-(N-methyl-3,4-dichlorobenzamido)-phenyl]-valeric acid] | 4.30 |
